According to article PMC12136788:
Changes are numbered by the printed parent chain. Some of the results follow.

B1: 132269891_132270011_1185_3pUTR_ENSG00000072364_ENST00000265343|human|control|control (ssRNA)
RNA: GGGAGUUCUACAGUCCGACGAUCGCUUCAGCUCAGUCAUGCUGUUGCCAUGGGAUUGGCUGCUGUAGUGCUCAGAGGACAGCUUUGGUUCCAUGGACUCCUGUCCGUCCAUGGGCCGCACAUAGGCAGUGGGUUUCUGUAACACAACAGAGGAUUGAGCAUCA
B2: 22161204_22161324_3265_3pUTR_ENSG00000136237_ENST00000344041|human|control|control (ssRNA)
RNA: GGGAGUUCUACAGUCCGACGAUCAAUCAUAUUAUGUCCAAUAAAAGAUAAGAGCCUGCUUAGAAGUAUAAAGAAAAUCCCCAGAAAUUAAACAAUGAGUCAAUUUCUUAAAGAUUACUAUUUUUCCUUACUGGCAAAGCAACUCAACAGAGGAUUGAGCAUCA
B3: chr1:66461069:66461070:+_ENSMUSG00000015222_ENSMUST00000114013|mus_hu|FALSE|FALSE (ssRNA)
RNA: GGGAGUUCUACAGUCCGACGAUCCUGACUGUCCGUUUUUACAAUGACAUGGUUUUCAUCAGUUACCGGGGGCAAGCCAGUACGACUAUCCUCAACCACAGUCUCUGAUGGGACUGAUUUCCUCCUGGCAACCUCAGCAUCUGCCAACAGAGGAUUGAGCAUCA
B4: chrX:71549762:71549763:+_ENSMUSG00000019087_ENSMUST00000019231|mus_mus|mus_mus_mus_hu_False|1_38 (ssRNA)
RNA: GGGAGUUCUACAGUCCGACGAUCAAACCCGUGUACUUCUUAUUGUUAGCACAACAUCACCAGAAAACGAUAACGACAGCCAAGCAGGACAGACAGUCAAGUAGUCUUUCCACACUCCCAAACUCAGGGAGCCCUAUAGUUCAUCAACAGAGGAUUGAGCAUCA
B5: chr11:4127340:4127341:+_ENSG00000167325_ENST00000300738|hu_mus|hu_hu_hu_mus_False|28_78 (ssRNA)
RNA: GGGAGUUCUACAGUCCGACGAUCGGCAUAGUCAGGGUGCUUCGUGGUCAAGGUCGCAGCUGUUUCAGCAGCCAGGGUGUCCAGUUCCACUGUGGUGACCCCACUAUACAAGCCUUGGAUUACUUUCAUGGUGAUCUGAGCAGGCAACAGAGGAUUGAGCAUCA
B6: chr12:493273:493274:-_ENSG00000073614_ENST00000399788|hu_mus|hu_hu_hu_mus_False|38_108 (ssRNA)
RNA: GGGAGUUCUACAGUCCGACGAUCUUUUCUCUCUACCACAGGGAUCUUCAAUGUAGAUCCUUGAAGUUCCCAAAAUUUUGCCAGUUGAUCCAAGAAGUCCAAUCUCACUCUAGUCAUUGCCUCAAGUUCAUUCAGGCGCUGGACCAACAGAGGAUUGAGCAUCA
B7: 92021576_92025768_2689_CDS_ENSG00000001629_ENST00000265742|human|control|control (ssRNA)
RNA: GGGAGUUCUACAGUCCGACGAUCAUCAGGGUCUGGAGGAUUACUGAGUAGACUGUGAACAUCUCCUCGACGACGUUGUCUGUGCCUCCUCCGAUACUGAAAUUCAGCAUAUUCCUCUGGUGAUGCAAAUCCUAAAUAUUCCCACAACAGAGGAUUGAGCAUCA
B8: chr10:71917581:71917582:-_ENSG00000079332_ENST00000373241|hu_mus|motif|central (ssRNA)
RNA: GGGAGUUCUACAGUCCGACGAUCCUCAACUUUGGAUUCCAUGAGACGAGAAUGAUCCGCACAGUCCACCAGAAAAACGGUGCCAUUAAUCGCUGGGAGAUAAUUUUUCCAAACGCGACGUGCUUGCUCAUGCCCACCGAGAUCCAACAGAGGAUUGAGCAUCA
B9: chr11:79252212:79252213:+_ENSMUSG00000020716_ENSMUST00000071325|mus_hu|motif|central (ssRNA)
RNA: GGGAGUUCUACAGUCCGACGAUCACUAGAAGGAAUAUCACAUCCUACCCCGUAAAAAAGGAGAAAGUGACAGGAACUUCGGUCUGCCUGCUUAUUUUUAAGAAGAAAUUUAUUCCUGCAGAUCAAUAUUUCCCGCAACCACUUCAACAGAGGAUUGAGCAUCA
B10: chr5:93611588:93611589:-_ENSMUSG00000063015_ENSMUST00000058550|mus_hu|FALSE|FALSE (ssRNA)
RNA: GGGAGUUCUACAGUCCGACGAUCCUUGAGUCAUGGCUGUCACACUGAAAUAAUUUGUUCAUUCAACUGCAGUGAAAAUCAAUAUAGAUCAACAUGCAUAAAGUUCAGUAACUAUUAAAUGGAGAAGCAAGCAAAAGCAACAGGCAACAGAGGAUUGAGCAUCA
B11: chr5:24319680:24319681:-_ENSMUSG00000028945_ENSMUST00000030787|perfect_dup|FALSE|FALSE (ssRNA)
RNA: GGGAGUUCUACAGUCCGACGAUCAAGUUGAAGAUGAUAUUCUUGUCCAUUUACUGUGAUCAACUUUGUAAAAGUGUUUUCUAUGGUUGGAUCGUAGGAGUCCACAAAUUGGCCUUCAACAAAUUGAAUCGUCAAUGAGGAUUUCAACAGAGGAUUGAGCAUCA
B12: chrX:35959125:35959126:+_ENSMUSG00000000355_ENSMUST00000000365|mus_hu|FALSE|FALSE (ssRNA)
RNA: GGGAGUUCUACAGUCCGACGAUCAUUUGCUCCACUGAGUACAAAUUUGAUGGCUCCUUUAUCAACCUGCUGGUGUGGCAGGAUAAAAGGAUAUUUGUGAAGUAAUCUUAGGGUUGGAUAAAAAGGCCCUUCUCUUUGUCUAAACAACAGAGGAUUGAGCAUCA
B13: chr8:126034020:126034021:+_ENSG00000104549_ENST00000265896|hu_mus|FALSE|FALSE (ssRNA)
RNA: GGGAGUUCUACAGUCCGACGAUCUUUGAAGCAGAAAUACGUGGCGUAGAUUGCAACGGAAAAGAAGUGUCGAAUCAACACCAGAGGGUGAGGAGACAAUAUUGAAAGCAACCCAACAGGACCGGUCACACACUCUCCACCAAGCAACAGAGGAUUGAGCAUCA
B14: chr11:4127340:4127341:+_ENSG00000167325_ENST00000300738|hu_mus|hu_hu_hu_mus_False|28_58 (ssRNA)
RNA: B5 RNA with A57G, U63C, G78A, C81U
B15: chr3:148802587:148802588:-_ENSG00000071794_ENST00000310053|hu_mus|hu_hu_hu_mus_False|78_108 (ssRNA)
RNA: GGGAGUUCUACAGUCCGACGAUCUCCAACCACAUGACCUCUCAUAGUUCCAAAUAAAACGGAAUCUUGCUCUUCAUCACUCGUUAGGAAGUCAUCUGGAGGAAUAAUGUCUUGGAAUUCAAAAUGUGGCAAGAAAGUUGAGUACAACAGAGGAUUGAGCAUCA
B16: chr14:31077228:31077229:+_ENSG00000092140_ENST00000206595|hu_hu|motif|central (ssRNA)
RNA: GGGAGUUCUACAGUCCGACGAUCUGUUGCAGUAUUUAUCCUGAUUAUAAUCUGUGCCACAUCAAAGUCUGAAACAUCAUCGGAAAUUGGCUGGGUAUUUUCUGGUCCAUAAACAAGGCAGUUAAACAAGGUUUUAGAAAAGAACAACAGAGGAUUGAGCAUCA
B17: chr13:113752066:113752067:+_ENSG00000126217_ENST00000375604|hu_hu|FALSE|FALSE (ssRNA)
RNA: GGGAGUUCUACAGUCCGACGAUCGGUGCGGCCUCCGAGGAGGCUGCAGUGCAGUGAGGCAGGGGCAGGGCUCUCUGAGCUAUGGUCGGCAGCACUGGUCCACGCCACACCCUGCAGAAACUGCAUCUUUGUAUUUUCUUUAAACAACAGAGGAUUGAGCAUCA
B18: chr7:151048522:151048523:+_ENSG00000013374_ENST00000566856|hu_mus|hu_hu_hu_mus_True|48_48 (ssRNA)
RNA: GGGAGUUCUACAGUCCGACGAUCCUGUUUCUUAUUUAUUACGAUCUUGAUGUAAUUUUCUUGAAAUCCGAAAGUUUCAGCUAUUUGGGACCUCAGUUCUCUACCAGUGACAUGCAAGCGGGUCUCCAACAAGCUUUUCUUAUCCAACAGAGGAUUGAGCAUCA
B19: chrX:98860016:98860017:+_ENSMUSG00000034160_ENSMUST00000044475|mus_hu|FALSE|FALSE (ssRNA)
RNA: GGGAGUUCUACAGUCCGACGAUCCUCCUUAUAAUGCAUCAGAGCUUCCUGCAGUUUUCCCUGCUGCUGCAGUACACUUGCUAAAUUUGAAUGGGCAGCAGCAAACUCUGGGAAGACUUCUAAUGCUUUACGAUACAAGCGAACCAACAGAGGAUUGAGCAUCA
B20: chr3:9412954:9412955:+_ENSG00000134077_ENST00000452837|hu_mus|hu_hu_hu_mus_False|48_58 (ssRNA)
RNA: GGGAGUUCUACAGUCCGACGAUCGGUUGAUAUCUCUUCUUUGAUGGCUGGAUUUUCAUAAUAGUCCAAGAUAUGUGAAUCUAAAGCAUGGCUAGUGUGCUUUUUCUUACCAUCUUUCUCAUCUGCUUUGUCUCCUUGUCCACACAACAGAGGAUUGAGCAUCA
B21: chr3:95733387:95733388:+_ENSMUSG00000015749_ENSMUST00000165307|mus_hu|FALSE|FALSE (ssRNA)
RNA: GGGAGUUCUACAGUCCGACGAUCAGAUAGGUGUGGGGGAGAAAGAAGAGAAUAGCAAAUGGAGUCCAAGAGUUGGGACUCUAACUCAGCUGCCCCCACCUCCUUGUCCACACACUAGCGCGCGCACACACACGCACGCACGCGCAACAGAGGAUUGAGCAUCA
B22: chr16:20552630:20552631:+_ENSMUSG00000003234_ENSMUST00000003319|mus_hu|FALSE|FALSE (ssRNA)
RNA: GGGAGUUCUACAGUCCGACGAUCGAGUUUACUCUGCACUUGAGAGGCCCUGUUGGCAUUGUAGCGAAACCGGUCAAUGAAAACCUGGAUGUGCUGGCGAUACUGCUGCUGCGCCUCAUAUUCACGCUGCUGGUUGAGCAGCCGCAACAGAGGAUUGAGCAUCA

Molecular target: T1, UNK ZnF1-3 (human, UniProt Q9C0B0 31-174)
T1 sequence: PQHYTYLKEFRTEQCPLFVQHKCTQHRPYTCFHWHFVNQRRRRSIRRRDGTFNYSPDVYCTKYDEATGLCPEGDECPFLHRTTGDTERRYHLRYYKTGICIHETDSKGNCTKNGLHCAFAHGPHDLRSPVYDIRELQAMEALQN
Assay: nsRBNS (natural sequence RNA bind-n-seq); RBNS binding buffer (assumed for nsRBNS): 25 mM Tris pH 7.5, 150 mM KCl, 3 mM MgCl2, 0.01% Triton X-100, 500 ug/ml BSA, 20 U/ml SUPERase-In, 4 C; UNK is unkempt and MSI1 is Musashi-1; names of the RNAs are library labels; protein concentration not given here; high values mean tight binding

Row | Binder | binding signal
1 | B1 | 0.753 enrichment R
2 | B2 | 0.676 enrichment R
3 | B3 | 0.803 enrichment R
4 | B4 | 1.15 enrichment R
5 | B5 | 0.947 enrichment R
6 | B6 | 0.895 enrichment R
7 | B7 | 0.927 enrichment R
8 | B8 | 1.42 enrichment R
9 | B9 | 1.2 enrichment R
10 | B10 | 2.2 enrichment R
11 | B11 | 0.949 enrichment R
12 | B12 | 0.603 enrichment R
13 | B13 | 1.73 enrichment R
14 | B14 | 0.801 enrichment R
15 | B15 | 1.41 enrichment R
16 | B16 | 1.43 enrichment R
17 | B17 | 0.717 enrichment R
18 | B18 | 0.677 enrichment R
19 | B19 | 0.396 enrichment R
20 | B20 | 0.435 enrichment R
21 | B21 | 0.54 enrichment R
22 | B22 | 0.605 enrichment R
